The list shows a part of the results.
B1: PhoQ; a variant is named by its letters at X, in order, P23837 (parent)
chain: MKKLLRLFFPLSLRVRFLLATAAVVLVLSLAYGMVALIGYSVSFDKTTFRLLRGESNLFYTLAKWENNKLHVELPENIDKQSPTMTLIYDENGQLLWAQRDVPWLMKMIQPDWLKSNGFHEIEADVNDTSLLLSGDHSIQQQLQEVREDDDDAEMTHSVAVNVYPATSRMPKLTIVVVDTIPVELKSSYMVWSWFIYVLSANLLLVIPLLWVAAWWSLRPIEALAKEVRELEEHNRELLNPATTRELTSLVRNLNRLLKSERERYDKYRTTLTDLTHSLKTPLXXLQXXLRSLRSEKMSVSDAEPVMLEQISRISQQIGYYLHRASMRGGTLLSRELHPVAPLLDNLTSALNKVYQRKGVNISLDISPEISFVGEQNDFVEVMGNVLDNACKYCLEFVEISARQTDEHLYIVVEDDGPGIPLSKREVIFDRGQRVDTLRPGQGVGLAVAREITEQYEGKIVAGESMLGGARMEVIFGRQHSAPKDE

Variants of: B1
Assay: enrichment ratio after two sorts for PhoP signalling (ratio (wild type AVST 3.29)); higher = more functional
Conditions: with PhoP (E. coli)

| Variant | enrichment ratio |
| --- | --- |
| KAPW | ≤ 0.25 |
| VNLK | ≤ 0.25 |
| LDST | ≤ 0.25 |
| SNPR | ≤ 0.25 |
| MFMC | ≤ 0.25 |
| SPPF | ≤ 0.25 |
| MPKQ | ≤ 0.25 |
| LKML | ≤ 0.25 |
| YYYK | ≤ 0.25 |
| IERY | ≤ 0.25 |
| GDCS | 1.33 |
| SYMS | ≤ 0.25 |
| QMQQ | ≤ 0.25 |
| HILP | ≤ 0.25 |
| IVNS | ≤ 0.25 |
| NPDM | ≤ 0.25 |
| VRVV | ≤ 0.25 |
| APAH | ≤ 0.25 |
| TESY | 23.2 |
| RLNP | ≤ 0.25 |
| ANNV | 4.18 |
| IFFE | ≤ 0.25 |
| MDPQ | ≤ 0.25 |
| SKIW | ≤ 0.25 |
| YDKR | ≤ 0.25 |
| PLHQ | ≤ 0.25 |

| Variant | enrichment ratio |
| --- | --- |
| DQCH | ≤ 0.25 |
| QWPS | ≤ 0.25 |
| TRCP | ≤ 0.25 |
| MLKF | ≤ 0.25 |
| AWDY | ≤ 0.25 |
| KGGQ | ≤ 0.25 |
| SHQH | ≤ 0.25 |
| SYSE | ≤ 0.25 |
| DMIY | ≤ 0.25 |
| DWVN | ≤ 0.25 |
| LRED | ≤ 0.25 |
| QHNY | 27.5 |
| LCKK | ≤ 0.25 |
| LWEQ | ≤ 0.25 |
| IAIQ | ≤ 0.25 |
| DNEW | ≤ 0.25 |
| DEPY | ≤ 0.25 |
| IQMI | ≤ 0.25 |
| YWVF | ≤ 0.25 |
| HDAF | ≤ 0.25 |
| CLWQ | ≤ 0.25 |
| SNAW | 0.572 |
| FFES | ≤ 0.25 |
| DVYA | ≤ 0.25 |
| KETM | ≤ 0.25 |
| QGNV | ≤ 0.25 |

| Variant | enrichment ratio |
| --- | --- |
| TKIP | ≤ 0.25 |
| IKNM | ≤ 0.25 |
| PVDT | ≤ 0.25 |
| SWCV | 0.578 |
| KDLW | ≤ 0.25 |
| NNWE | ≤ 0.25 |
| HRRC | ≤ 0.25 |
| KNNH | ≤ 0.25 |
| QEAR | ≤ 0.25 |
| QDHC | ≤ 0.25 |
| HKRE | ≤ 0.25 |
| ITAR | ≤ 0.25 |
| NLMN | ≤ 0.25 |
| QWDI | ≤ 0.25 |
| INAS | ≤ 0.25 |
| KADT | ≤ 0.25 |
| NARF | ≤ 0.25 |
| YFRT | ≤ 0.25 |
| ENSG | ≤ 0.25 |
| LINV | ≤ 0.25 |
| AKKV | ≤ 0.25 |
| FHWS | ≤ 0.25 |
| RVEN | ≤ 0.25 |
| RGVQ | ≤ 0.25 |
| FLFR | ≤ 0.25 |
| LMVP | ≤ 0.25 |

| Variant | enrichment ratio |
| --- | --- |
| TWHN | ≤ 0.25 |
| PRPP | ≤ 0.25 |
| ILMQ | ≤ 0.25 |
| GGVE | ≤ 0.25 |
| HYQK | ≤ 0.25 |
| DVSH | ≤ 0.25 |
| EELE | ≤ 0.25 |
| PGHW | ≤ 0.25 |
| KPSR | ≤ 0.25 |
| VHPR | ≤ 0.25 |
| EYCD | ≤ 0.25 |
| RAYI | ≤ 0.25 |
| FTSA | ≤ 0.25 |
| RPRF | ≤ 0.25 |
| EERA | ≤ 0.25 |
| LVFW | ≤ 0.25 |
| FYLC | ≤ 0.25 |
| RMVA | ≤ 0.25 |
| QVPG | ≤ 0.25 |
| DSYS | ≤ 0.25 |
| CYTN | ≤ 0.25 |
| RAVQ | ≤ 0.25 |
| QCIP | ≤ 0.25 |
| NMWL | ≤ 0.25 |
| WLNP | ≤ 0.25 |
| YYVP | ≤ 0.25 |

| Variant | enrichment ratio |
| --- | --- |
| DCPG | ≤ 0.25 |
| SEWS | 2.54 |
| HMRE | ≤ 0.25 |
| SEKM | ≤ 0.25 |
| VQVK | ≤ 0.25 |
| NITL | ≤ 0.25 |
| TFLF | 0.343 |
| HGAA | ≤ 0.25 |
| QTWY | 8.93 |
| THTD | ≤ 0.25 |
| QGCM | 1.34 |
| HDIA | ≤ 0.25 |
| RPHN | ≤ 0.25 |
| YHWH | ≤ 0.25 |
| YKDA | ≤ 0.25 |
| QPWI | ≤ 0.25 |
| GLFG | ≤ 0.25 |
| LPWK | ≤ 0.25 |
| HQRT | ≤ 0.25 |
| NPYS | ≤ 0.25 |
| FMHM | ≤ 0.25 |
| LPLH | ≤ 0.25 |
| RIEE | ≤ 0.25 |
| ADIY | ≤ 0.25 |
| LRSD | ≤ 0.25 |
| HEDE | ≤ 0.25 |

| Variant | enrichment ratio |
| --- | --- |
| LTCY | ≤ 0.25 |
| SKVF | 4.2 |
| WSLC | ≤ 0.25 |
| MCTH | ≤ 0.25 |
| LIKH | ≤ 0.25 |
| RRTD | ≤ 0.25 |
| TANP | ≤ 0.25 |
| PDPF | ≤ 0.25 |
| LYQI | ≤ 0.25 |
| LVWS | ≤ 0.25 |
| FFRM | ≤ 0.25 |
| HDHQ | ≤ 0.25 |
| ETGV | ≤ 0.25 |
| PNCD | ≤ 0.25 |
| PRGM | ≤ 0.25 |
| VLDH | ≤ 0.25 |
| NTTK | ≤ 0.25 |
| TANS | 11.9 |
| YEMS | 14.7 |
| FVRG | ≤ 0.25 |
| AAHL | 0.456 |
| NEHI | ≤ 0.25 |
| AHHN | ≤ 0.25 |
